# Results published in PubChem BioAssay AID1865 (National Center for Advancing Translational Sciences (NCATS), 2009).
# Out of some 280,000 compounds screened, about 540 (0.19%) were called active. Inconclusive means that the source gave no clear call. Such entries were picked first, then a sample of the others. Calls follow the shape of the dose curve; as a rule, active = well fitted activation curve with a large enough effect; inconclusive = small, poorly fitted or top-dose-only effect; inactive = flat fitted curve, though single readings scatter. Potencies of inconclusive entries are doubtful fits and often do not repeat.
# Test: Quantitative High-Throughput Screen for Regulators of Epigenetic Control; also: nearly all actives have a fitted effect of over 60% in size; as to GFP activation: % of control where 0% means no effect
# Settings: murine LDR cells, GFP reporter derepression, 30 h; GFP activation: at 53.9 µM (top of the series)
# Outline: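 Readout is the number of GFP-expressing murine LDR cells, counted by cytometry following washing. Cells were treated with compound for 30 h at 37 C; the stably integrated CMV-GFP locus is normally silent.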
# Potency is read from the fitted curve at half-maximal effect; tags tell the direction and shape of the fitted curve.
SMILES,Potency,GFP activation
CC1=CN2C(=N)/C(=C/c3ccc([N+](=O)[O-])o3)C(=O)N=C2S1,"inconclusive: 31.6 µM [activator, single point]",
CC1=CC(=C(C#N)c2nc3ccccc3s2)C=C(C)N1c1ccc(F)cc1F,"inconclusive: 35.5 µM [activator, single point]",
COC(=O)CSC1=NS(=O)(=O)c2ccccc21,,inactive: 0.877%
Nc1nc(Sc2c([N+](=O)[O-])cc(C(F)(F)F)cc2[N+](=O)[O-])n[nH]1,"inconclusive: 3.98 µM [activator, single point]",
CCC(=Nc1ccc(N)cc1)C1=C(O)C(C(=O)OC)C(C)(C)CC1=O (stereo not drawn),"inconclusive: 4.47 µM [activator, single point]",
Cc1ccc(-n2ncc3c(Nc4cccc(C)c4C)ncnc32)cc1,,inactive: -0.863%
Cc1cc(NC(=O)COC(=O)C(Nc2ccc(C(F)(F)F)cc2Cl)C(C)C)no1 (stereo not drawn),"inconclusive: 35.5 µM [activator, single point]",
CCOc1ccc2[nH]cc(S(=O)(=O)c3ccc(F)cc3)c(=O)c2c1,,inactive: -4.05%
N#C/C(=C\c1cccnc1)C(=O)Nc1cccc(Cl)c1,"inconclusive: 6.31 µM [activator, single point]",
COc1ccc(C[C@@](C)(N)C(=O)O)cc1OC,,inactive: 4.11% [at 16.9 µM]
Cc1ccc(-n2c(=O)c3c(C)c(C)sc3n(CC(=O)NCc3ccccc3)c2=O)cc1C,"inconclusive: 22.4 µM [activator, single point]",
C=C[C@@H]1CN2CC[C@@H]1C[C@@H]2[C@@H](O)c1ccnc2ccc(OC)cc12,,inactive: -2.7%
CCN1CCc2nc3sc(C(=O)c4ccc(F)cc4)c(N)c3cc2C1,"inconclusive: 35.5 µM [activator, single point]",
CC1=C(c2ccc(Cl)cc2)S(=O)(=O)N=C1N1CCC(C(=O)NCc2ccccc2F)CC1,"inconclusive: 35.5 µM [activator, single point]",
O=C1C2=CC[C@H]3C(=O)N(C4CCCCC4)C(=O)[C@@H]3[C@@H]2[C@H](O)[C@@H]2O[C@H]12,"inconclusive: 1.26 µM [activator, single point]",
O=C(N/N=C/c1ccc(N2CCOCC2)o1)c1cccc(F)c1,"inconclusive: 35.5 µM [activator, single point]",
COc1cc2c(c(O)c1OC)-c1c(cc(OC)c(OC)c1OC)C[C@@H](C)[C@@H](C)C2,,inactive: -0.548%
CN(C)c1ccc(/C=C(/C(=O)c2ccc(Cl)cc2Cl)n2cncn2)cc1,"inconclusive: 22.4 µM [activator, single point]",
Cc1ccc(Cl)cc1NC(=O)CSc1nc2ccccc2nc1Cc1ccccc1,"inconclusive: 28.2 µM [activator, single point]",
Cc1ccc(N=Cc2c(O)ccc3ccccc23)cc1F,"inconclusive: 35.5 µM [activator, single point]",
Cc1cccc(Cn2cc(S(=O)(=O)c3cccc(C)c3)c(=O)c3cc(F)c(N4CCOCC4)cc32)c1,,inactive: -0.171%
Cc1cc([N+](=O)[O-])ccc1-c1ccc(/C=N/NC(=O)Cc2ccccc2)o1,"inconclusive: 35.5 µM [activator, single point]",
Cn1c(/C(C#N)=C/c2ccc(-c3ccc(S(N)(=O)=O)cc3)o2)nc2ccccc21,"inconclusive: 5.62 µM [activator, full curve]",

SMILES,Potency,GFP activation
O=C(CC1(O)C(=O)N(C/C=C/c2ccccc2)c2ccccc21)c1ccccn1 (stereo not drawn),"inconclusive: 3.16 µM [activator, single point]",
CN(C)c1ccc(/C=N/NC(=O)c2cnc3ccccc3c2)cc1,"inconclusive: 35.5 µM [activator, single point]",
Cc1c(=O)n(OCc2cccc(F)c2)c2ccccc2[n+]1[O-],"inconclusive: 28.2 µM [activator, single point]",
CC(C)N(CCC(=O)c1ccc2ccccc2c1)Cc1ccccc1,"inconclusive: 6.31 µM [activator, single point]",
C=CCNC(=S)N/N=C(\C)c1ccccn1,"inconclusive: 5.62 µM [activator, single point]",
CCOc1ccc(S(=O)(=O)Nc2ccccc2C(=O)NCc2ccco2)cc1,,inactive: -0.341%
O=c1cc(-c2ccccc2)n2c(SCc3cccc([N+](=O)[O-])c3)nnc2[nH]1,"inconclusive: 0.0045 µM [activator, full curve, poor fit]",
O=C(Cn1nnc(-c2ccccc2NC(=O)c2ccccc2)n1)Nc1ccc2c(c1)OCCO2,"inconclusive: 28.2 µM [activator, single point]",
CCOC(=O)c1cc(CC)sc1NC(=O)C1CC(=O)NN1Cc1ccccc1 (stereo not drawn),,inactive: -0.862%
COc1ccc(-n2c(=O)c3ccccc3n(Cc3ccccc3C)c2=O)c(OC)c1,,inactive: -5.06%
O=C(Nc1ccccc1)/C(=C\c1cccs1)NC(=O)c1ccccc1,,inactive: 5.34%
CC(=O)n1c(C=Nc2ccc(Cl)cc2)c(O)c2ccccc21,"inconclusive: 3.55 µM [activator, partial curve]",
CNC(CC(=O)c1ccc([N+](=O)[O-])cc1)C(Cl)(Cl)Cl (stereo not drawn),"inconclusive: 20 µM [activator, single point]",
COC(=O)c1scc(-c2ccc(C)cc2)c1S(=O)(=O)N1CCN(c2ccc(OC)cc2)CC1,,inactive: 0%
COc1cc(OC)c(Nc2nc3ccccc3nc2-n2nc(C)cc2C)cc1Cl,"inconclusive: 20 µM [activator, single point]",
CCOC(=O)Cc1nnc(NC(=O)CSc2ccc(Cl)cc2)s1,,inactive: 0%
Cc1cc(Br)ccc1SCC(=O)OCC(=O)N1CCN(C(=O)c2ccco2)CC1,,inactive: 6.44%
COc1ccc(Cl)c(Cn2c(NCc3ccco3)nc3c2c(=O)n(C)c(=O)n3C)c1,"inconclusive: 35.5 µM [activator, single point]",
O=C(O)c1ccc(Nc2nc(-c3cc4ccccc4oc3=O)cs2)cc1O,"inconclusive: 5.62 µM [activator, single point]",
CCOc1ccc2nc(N=NC3=C(O)CC(C)(C)CC3=O)sc2c1,"inconclusive: 22.4 µM [activator, single point]",
Fc1ccccc1Nc1nc2ccccc2n2nnnc12,"inconclusive: 35.5 µM [activator, single point]",
CCCN1CCN(CCCNC(=O)Cn2nc(CC)n3c(cc4occc43)c2=O)CC1,"inconclusive: 35.5 µM [activator, single point]",
N#C/C(=C(/O)COc1cccc2ccccc12)c1nc2ccccc2[nH]1,"inconclusive: 25.1 µM [activator, single point]",

SMILES,Potency,GFP activation
O=[N+]([O-])c1ccc(-c2csc(N/N=C/c3cccnc3)n2)cc1,,inactive: -0.115%
CC1(C)O[C@H]2[C@@H](O1)[C@@H](C(=O)Nc1ccc(F)c(F)c1)O[C@@H]1OC(C)(C)O[C@@H]12,,inactive: -4.54%
CCC1(C)Cc2c(sc3nc(NN)n(C)c(=O)c23)CO1 (stereo not drawn),"inconclusive: 6.31 µM [activator, single point]",
COc1cc2c(cc1OC)C(SC)=NC(C)(C)C2,"inconclusive: 35.5 µM [activator, single point]",
O=c1[nH]c2c(s1)C(c1ccc(O)cc1)C1C3CCC(C3)C1S2 (stereo not drawn),,inactive: 0.769%
Oc1c(N=Nc2ccccn2)ccc2ccccc12,active: 10 µM,
Oc1cccc2ccc(/C=C/c3c(F)cccc3Cl)nc12,"inconclusive: 20 µM [activator, single point]",
N#Cc1c(-c2cccs2)cc(-c2ccccn2)nc1N,"inconclusive: 3.98 µM [activator, single point]",
COC(=O)CSc1nc2cc3c(cc2cc1C#N)OCO3,"inconclusive: 10 µM [activator, single point]",
CC1=C(c2ccc(C(C)C)cc2)S(=O)(=O)NC1=NCc1ccccc1Br,"inconclusive: 35.5 µM [activator, single point]",
Cc1sc(NC(=O)Cn2[nH]c(=O)c3ccccc3c2=O)nc1-c1ccccc1,"inconclusive: 35.5 µM [activator, single point]",
O=C(Nc1nnc(S(=O)(=O)N2CCc3ccccc32)s1)c1ccccc1,"inconclusive: 35.5 µM [activator, single point]",
S=c1[nH]cnc2scc(-c3ccc(Br)cc3)c12,"inconclusive: 28.2 µM [activator, single point]",
CCc1ccc(-c2nc(-c3cc4ccccc4oc3=O)sc2C)cc1,"inconclusive: 25.1 µM [activator, single point]",
CCOc1ccc(/C=C/c2nc(C#N)c(Nc3ccc(OC)cc3)o2)cc1,"inconclusive: 11.2 µM [activator, partial curve]",
O=C1c2cccc3c([N+](=O)[O-])ccc(c23)C(=O)N1c1ccc(Cl)cn1,active: 14.1 µM,
Cc1csc(NC(=O)CSc2nnc(-c3ccoc3C)o2)n1,,inactive: 4.33%
CCOC(=O)c1c(NC(=O)c2ccc(S(=O)(=O)N3CCCC(C)C3)cc2)sc2c1CCN(C(C)C)C2 (stereo not drawn),"inconclusive: 31.6 µM [activator, single point]",
Nc1ccccc1Sc1nc2ccccc2[nH]1,"inconclusive: 35.5 µM [activator, single point]",
CCN1c2cc(C)ccc2-n2cccc2C12CCN(C(=O)Nc1cc(OC)c(OC)c(OC)c1)CC2,,inactive: 0.661%
CCOC(=O)c1cc(C)sc1NC(=O)c1ccc(Cl)s1,"inconclusive: 20 µM [activator, single point]",
COc1ccc(NC(=O)c2ccc3c(c2)nnn3C2CCCC2)cc1Cl,"inconclusive: 35.5 µM [activator, single point]",
